# From the supplement of paper PMC8728848
# The other results are listed elsewhere or left out.
# How the values were obtained:
# Test in all cases: glycan array binding signal (z-score within array); higher = stronger binding
# Settings in all cases: glycan notation: IUPAC condensed, linker removed
# [1] = target: Neu5Ac(a2-3)Gal(b1-3)GalNAc(b1-3)Gal(a1-4)Gal(b1-4)Glc
# Outline: (§1)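 Arrays were curated from the Consortium for Functional Glycomics database, 3228 in total, and kept only where the protein sequence was available. Binding is expressed as a within-array Z-score. This score was averaged across arrays of the same protein sequence at different concentrations or buffers and across linkers, and negative values can be read as non-binding.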
# [2] = target: Neu5Ac(a2-3)Gal(b1-3)GalNAc(b1-4)[Neu5Ac(a2-3)]Gal(b1-4)Glc
# Outline: as §1
# [3] = target: Neu5Ac(a2-3)Gal(b1-3)GalNAc(b1-4)[Neu5Ac(a2-8)Neu5Ac(a2-3)]Gal(b1-4)Glc
# Outline: as §1
# [4] = target: Neu5Ac(a2-3)Gal(b1-3)GalNAc6S
# Outline: as §1
# [5] = target: Neu5Ac(a2-3)Gal(b1-3)GlcNAc
# Outline: as §1
# [6] = target: Neu5Ac(a2-3)Gal(b1-3)GlcNAc(b1-2)Man
# Outline: as §1
# [7] = target: Neu5Ac(a2-3)Gal(b1-3)GlcNAc(b1-2)Man(a1-3)[GlcNAc(b1-4)][Neu5Ac(a2-3)Gal(b1-3)GlcNAc(b1-2)Man(a1-6)]Man(b1-4)GlcNAc(b1-4)GlcNAc
# Outline: as §1
# [8] = target: Neu5Ac(a2-3)Gal(b1-3)GlcNAc(b1-2)Man(a1-3)[Neu5Ac(a2-3)Gal(b1-3)GlcNAc(b1-2)Man(a1-6)]Man(b1-4)GlcNAc(b1-4)GlcNAc
# Outline: as §1
# [9] = target: Neu5Ac(a2-3)Gal(b1-3)GlcNAc(b1-3)Gal(b1-3)GlcNAc
# Outline: as §1
# [10] = target: Neu5Ac(a2-3)Gal(b1-3)GlcNAc(b1-3)Gal(b1-4)GlcNAc
# Outline: as §1
# [11] = target: Neu5Ac(a2-3)Gal(b1-3)GlcNAc(b1-3)GalNAc
# Outline: as §1
# [12] = target: Neu5Ac(a2-3)Gal(b1-3)GlcNAc(b1-4)Gal(b1-4)Glc
# Outline: as §1
# [13] = target: Neu5Ac(a2-3)Gal(b1-3)GlcNAc(b1-6)GalNAc
# Outline: as §1
# [14] = target: Neu5Ac(a2-3)Gal(b1-3)GlcNAc6S
# Outline: as §1
# [15] = target: Neu5Ac(a2-3)Gal(b1-3)[Fuc(a1-4)]GlcNAc
# Outline: as §1
# [16] = target: Neu5Ac(a2-3)Gal(b1-3)[Fuc(a1-4)]GlcNAc(b1-3)Gal(b1-3)[Fuc(a1-4)]GlcNAc
# Outline: as §1
# [17] = target: Neu5Ac(a2-3)Gal(b1-3)[Fuc(a1-4)]GlcNAc(b1-3)Gal(b1-4)[Fuc(a1-3)]GlcNAc
# Outline: as §1
# [18] = target: Neu5Ac(a2-3)Gal(b1-3)[GlcNAc(b1-6)]GalNAc
# Outline: as §1
# [19] = target: Neu5Ac(a2-3)Gal(b1-3)[Neu5Ac(a2-6)]GalNAc
# Outline: as §1
# [20] = target: Neu5Ac(a2-3)Gal(b1-3)[Neu5Ac(a2-6)]GlcNAc(b1-3)[Fuc(a1-3)[Gal(b1-4)]GlcNAc(b1-6)]Gal(b1-4)Glc
# Outline: as §1
# [21] = target: Neu5Ac(a2-3)Gal(b1-3)]Neu5Ac(a2-3)Gal(b1-4)]GlcNAc
# Outline: as §1
# Neu5Ac(a2-3)Gal(b1-4)Glc = target: Neu5Ac(a2-3)Gal(b1-4)Glc
# Outline: as §1
# [22] = target: Neu5Ac(a2-3)Gal(b1-4)GlcNAc
# Outline: as §1
# [23] = target: Neu5Ac(a2-3)Gal(b1-4)GlcNAc(b1-2)Man
# Outline: as §1
# [24] = target: Neu5Ac(a2-3)Gal(b1-4)GlcNAc(b1-2)Man(a1-3)[GlcNAc(b1-4)][Neu5Ac(a2-3)Gal(b1-4)GlcNAc(b1-2)Man(a1-6)]Man(b1-4)GlcNAc(b1-4)GlcNAc
# Outline: as §1
# [25] = target: Neu5Ac(a2-3)Gal(b1-4)GlcNAc(b1-2)Man(a1-3)[Neu5Ac(a2-3)Gal(b1-4)GlcNAc(b1-2)Man(a1-6)]Man(b1-4)GlcNAc(b1-4)GlcNAc
# Outline: as §1
# [26] = target: Neu5Ac(a2-3)Gal(b1-4)GlcNAc(b1-2)Man(a1-3)[Neu5Ac(a2-3)Gal(b1-4)GlcNAc(b1-2)Man(a1-6)]Man(b1-4)GlcNAc(b1-4)[Fuc(a1-6)]GlcNAc
# Outline: as §1
# [27] = target: Neu5Ac(a2-3)Gal(b1-4)GlcNAc(b1-2)Man(a1-3)[Neu5Ac(a2-6)Gal(b1-4)GlcNAc(b1-2)Man(a1-6)]Man(b1-4)GlcNAc(b1-4)GlcNAc
# Outline: as §1
# [28] = target: Neu5Ac(a2-3)Gal(b1-4)GlcNAc(b1-2)[Neu5Ac(a2-3)Gal(b1-4)GlcNAc(b1-4)]Man(a1-3)[GlcNAc(b1-4)][Neu5Ac(a2-3)Gal(b1-4)GlcNAc(b1-2)[Neu5Ac(a2-3)Gal(b1-4)GlcNAc(b1-6)]Man(a1-6)]Man(b1-4)GlcNAc(b1-4)GlcNAc
# Outline: as §1
# [29] = target: Neu5Ac(a2-3)Gal(b1-4)GlcNAc(b1-2)[Neu5Ac(a2-3)Gal(b1-4)GlcNAc(b1-4)]Man(a1-3)[GlcNAc(b1-4)][Neu5Ac(a2-3)Gal(b1-4)GlcNAc(b1-4)Man(a1-6)]Man(b1-4)GlcNAc(b1-4)GlcNAc
# Outline: as §1
# [30] = target: Neu5Ac(a2-3)Gal(b1-4)GlcNAc(b1-2)[Neu5Ac(a2-3)Gal(b1-4)GlcNAc(b1-6)]Man(a1-6)[Neu5Ac(a2-3)Gal(b1-4)GlcNAc(b1-2)Man(a1-3)]Man(b1-4)GlcNAc(b1-4)GlcNAc
# Outline: as §1
# [31] = target: Neu5Ac(a2-3)Gal(b1-4)GlcNAc(b1-2)[Neu5Ac(a2-3)Gal(b1-4)GlcNAc(b1-6)]Man(a1-6)[Neu5Ac(a2-3)Gal(b1-4)GlcNAc(b1-2)Man(a1-3)][GlcNAc(b1-4)]Man(b1-4)GlcNAc(b1-4)GlcNAc
# Outline: as §1
# [32] = target: Neu5Ac(a2-3)Gal(b1-4)GlcNAc(b1-3)Gal
# Outline: as §1
# [33] = target: Neu5Ac(a2-3)Gal(b1-4)GlcNAc(b1-3)Gal(b1-3)GlcNAc
# Outline: as §1
# [34] = target: Neu5Ac(a2-3)Gal(b1-4)GlcNAc(b1-3)Gal(b1-4)GlcNAc
# Outline: as §1
# [35] = target: Neu5Ac(a2-3)Gal(b1-4)GlcNAc(b1-3)Gal(b1-4)GlcNAc(b1-2)Man(a1-3)[Neu5Ac(a2-3)Gal(b1-4)GlcNAc(b1-3)Gal(b1-4)GlcNAc(b1-2)Man(a1-6)]Man(b1-4)GlcNAc(b1-4)GlcNAc
# Outline: as §1
# [36] = target: Neu5Ac(a2-3)Gal(b1-4)GlcNAc(b1-3)Gal(b1-4)GlcNAc(b1-3)Gal(b1-4)GlcNAc
# Outline: as §1
# [37] = target: Neu5Ac(a2-3)Gal(b1-4)GlcNAc(b1-3)Gal(b1-4)GlcNAc(b1-3)Gal(b1-4)GlcNAc(b1-2)Man(a1-3)[Neu5Ac(a2-3)Gal(b1-4)GlcNAc(b1-3)Gal(b1-4)GlcNAc(b1-3)Gal(b1-4)GlcNAc(b1-2)Man(a1-6)]GalNAc
# Outline: as §1
# [38] = target: Neu5Ac(a2-3)Gal(b1-4)GlcNAc(b1-3)Gal(b1-4)GlcNAc(b1-3)GalNAc
# Outline: as §1
# [39] = target: Neu5Ac(a2-3)Gal(b1-4)GlcNAc(b1-3)Gal(b1-4)GlcNAc(b1-3)[Neu5Ac(a2-3)Gal(b1-4)GlcNAc(b1-3)Gal(b1-4)GlcNAc(b1-6)]GalNAc
# Outline: as §1
# [40] = target: Neu5Ac(a2-3)Gal(b1-4)GlcNAc(b1-3)Gal(b1-4)GlcNAc(b1-6)[Gal(b1-3)]GalNAc
# Outline: as §1
# [41] = target: Neu5Ac(a2-3)Gal(b1-4)GlcNAc(b1-3)Gal(b1-4)[Fuc(a1-3)]GlcNAc
# Outline: as §1
# [42] = target: Neu5Ac(a2-3)Gal(b1-4)GlcNAc(b1-3)GalNAc
# Outline: as §1
# [43] = target: Neu5Ac(a2-3)Gal(b1-4)GlcNAc(b1-3)[Neu5Ac(a2-3)Gal(b1-4)GlcNAc(b1-6)]GalNAc
# Outline: as §1
# [44] = target: Neu5Ac(a2-3)Gal(b1-4)GlcNAc(b1-6)GalNAc
# Outline: as §1
binder,measurement,setting,value
Clrb (Mus musculus) (protein) ITGATKTEQIPVNKTYAACPQNWIGVENKCFYFSEYPSNWTFAQAFCMAQEAQLARFDNQDELNFLMRYKANFDSWIGLHRESSEHPWKWTDNTEYNNTIPIRGEERFAYLNNNGISSTRIYSLRMWICSKLNSYSLHCQTPFFPSGTKHHHHHHHHG,glycan array binding signal (z-score),[1],-0.431
same,glycan array binding signal (z-score),[2],-0.475
same,glycan array binding signal (z-score),[3],-0.207
same,glycan array binding signal (z-score),[4],-0.305
same,glycan array binding signal (z-score),[5],-0.306
same,glycan array binding signal (z-score),[6],-0.313
same,glycan array binding signal (z-score),[7],-0.36
same,glycan array binding signal (z-score),[8],-0.373
same,glycan array binding signal (z-score),[9],-0.434
same,glycan array binding signal (z-score),[10],-0.054
same,glycan array binding signal (z-score),[11],-0.447
same,glycan array binding signal (z-score),[12],-0.291
same,glycan array binding signal (z-score),[13],-0.477
same,glycan array binding signal (z-score),[14],-0.211
same,glycan array binding signal (z-score),[15],-0.041
same,glycan array binding signal (z-score),[16],-0.359
same,glycan array binding signal (z-score),[17],-0.248
same,glycan array binding signal (z-score),[18],-0.419
same,glycan array binding signal (z-score),[19],-0.386
same,glycan array binding signal (z-score),[20],-0.305
same,glycan array binding signal (z-score),[21],-0.312
same,glycan array binding signal (z-score),Neu5Ac(a2-3)Gal(b1-4)Glc,-0.397
same,glycan array binding signal (z-score),[22],0.03
same,glycan array binding signal (z-score),[23],-0.317
same,glycan array binding signal (z-score),[24],0.656
same,glycan array binding signal (z-score),[25],-0.311
same,glycan array binding signal (z-score),[26],-0.226
same,glycan array binding signal (z-score),[27],-0.294
same,glycan array binding signal (z-score),[28],-0.305
same,glycan array binding signal (z-score),[29],-0.366
same,glycan array binding signal (z-score),[30],-0.142
same,glycan array binding signal (z-score),[31],0.153
same,glycan array binding signal (z-score),[32],-0.291
same,glycan array binding signal (z-score),[33],-0.383
same,glycan array binding signal (z-score),[34],0.115
same,glycan array binding signal (z-score),[35],-0.206
same,glycan array binding signal (z-score),[36],-0.076
same,glycan array binding signal (z-score),[37],-0.185
same,glycan array binding signal (z-score),[38],-0.312
same,glycan array binding signal (z-score),[39],-0.488
same,glycan array binding signal (z-score),[40],-0.208
same,glycan array binding signal (z-score),[41],-0.247
same,glycan array binding signal (z-score),[42],-0.44
same,glycan array binding signal (z-score),[43],-0.487
same,glycan array binding signal (z-score),[44],-0.392
